Experimental findings from PubChem BioAssay AID1963576 (National Center for Advancing Translational Sciences (NCATS), 2024) are described below.

Structures are written as SMILES. The whole screen tested about 46,000 compounds, of which about 60 (0.1%) were called active. Inconclusive results (about 3%) are left out. Calls follow the shape of the dose curve; as a rule, active = well fitted inhibition curve with a large enough effect; inconclusive = small, poorly fitted or top-dose-only effect; inactive = no such curve, though single readings can be large or run the other way. Some of the results follow.

This assay is described as follows: Primary qHTS assay for Inhibitors of ovarian cancer metastasis using an organotypic tumor microenvironment (TME) model. Also: nearly all actives have a fitted effect of over 65% in size.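 As to activity change, negative = inhibition: plate controls were DMSO wells for no effect and tomatine positive control wells for full effect.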 The note with it: SKOV3ip1-GFP adhesion/invasion on 3D omental model, fluorescence; series mostly up to 45.8 µM; activity change, negative = inhibition: at the top concentration. An outline of the steps: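 Primary human omental fibroblast/mesothelial 3D culture pre-formed 48 h. SKOV3ip1-GFP cells added with compounds (0.36-46 umol/L), incubated 2 h RT/16 h 37 C, fixed; GFP cells quantified at 488/509 nm.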
For orientation: qHTS replaces the single test concentration by a dilution series.
Regarding `COc1cc(NC(=O)c2ccc3c(Cl)c4c(nc3c2)CCC4)cc(OC)c1OC`, the molecule was called inactive. On the same count and under the same terms, then `CC(=O)c1cccc(-n2c(=O)c3c4c(sc3n(CC(=O)Nc3ccccc3F)c2=O)CN(C(C)=O)CC4)c1`, with “inactive”. Turning to `Cc1cc(NC(=O)c2cc(-c3ccc(Br)cc3)on2)nn1Cc1ccc(Cl)cc1`, the result was inactive.

As for `COc1cc([C@H]2Oc3cc([C@H]4Oc5cc(O)cc(O)c5C(=O)[C@H]4O)ccc3O[C@H]2CO)ccc1O`, the “activity change, negative = inhibition” value was inactive: 16.3%.

As to `CCOc1ccc(N(C(C)C(=O)NCCSc2ccc(Cl)cc2)S(C)(=O)=O)cc1` (stereo unspecified), the call was inactive.

As for `CCOc1cccc2sc(N3CCN(C(=O)C(C)(C)C)CC3)nc12`, the “activity change, negative = inhibition” value is inactive: -2.81%. Consider `Cc1nc(N2CCOCC2)c2c(C(=O)N(C)Cc3ccccc3)c(C)oc2n1`, for which the “activity change, negative = inhibition” value is inactive: 5.21%.

On to `O=C(Cn1nc(-c2ccccc2)c2cnc3ccc(F)cc3c21)NC1CCCC1`, for which the “activity change, negative = inhibition” value is inactive: -3.45%.

Turning to `CCOC(=O)C1CCN(c2cc(C)nc3c(-c4ccccc4OC)c(C)nn23)CC1`, the “activity change, negative = inhibition” value was inactive: 10.7%. Turning to `O=C(Nc1nnc(S(=O)(=O)N2CCCCCC2)s1)c1ccccc1F`, the “activity change, negative = inhibition” value is inactive: -1.84%.

In the case of `CCCCNc1nc(Oc2ccc(=O)n(-c3ccccc3)n2)nc(N(CC)CC)n1`, the “activity change, negative = inhibition” value was inactive: -0.343%. Take `Cc1cc(NC(=O)CSc2nc3c([nH]c4ccccc43)c(=O)n2-c2ccccc2F)no1`: the result was inactive.

As for `Cc1ccc(-c2nnc(SCC(=O)N3CCCc4ccccc43)o2)cc1`, the “activity change, negative = inhibition” value is inactive: -5.39%.

On to `O=C(Nc1ccc(Cl)cc1)N1CCC(CN2CCCCCC2)CC1`, for which the “activity change, negative = inhibition” value was inactive: 12.9%. `Cc1ccc(NC(=O)c2nnn(Cc3cccc(C(F)(F)F)c3)c2N)c(C)c1`: the outcome was inactive. Regarding `COc1cccc(Cn2ccn(-c3ccc(F)cc3)c(=O)c2=O)c1`, the “activity change, negative = inhibition” value was inactive: -0.573%. Regarding `Cc1ccc(C(=O)c2oc3ccccc3c2NC(=O)c2cc(=O)c3cc(C)ccc3o2)cc1`, the “activity change, negative = inhibition” value was inactive: 0.173%.

On to `COC(=O)c1ccc(-n2nnc(-c3nc(-c4ccccc4Cl)no3)c2C)cc1`, for which the “activity change, negative = inhibition” value was inactive: -0.488%. On to `CCNC(=O)C1CCCN(c2ncnc3onc(C)c23)C1` (stereo unspecified), for which the “activity change, negative = inhibition” value is inactive: 3.08%. For `Cc1cccc(Cn2c(SCc3ccc(C(=O)NCc4ccccc4)cc3)nc3cccnc32)c1`, the “activity change, negative = inhibition” value is inactive: -19.9%.

As for `COc1ccc(CNC(=O)CCc2c(C)c3ccc(OC)c(C)c3oc2=O)cc1OC`, the “activity change, negative = inhibition” value was inactive: 2.61%.

Take `COc1ccc(NC(=O)Cn2cc(C(=O)c3ccncc3)c(=O)c3cc(C)ccc32)cc1Cl`: the “activity change, negative = inhibition” value was inactive: 2.96%. Take `CCOC(=O)c1c(NC(=O)COc2ccc(CC)cc2)sc2c1CCCC2`: the “activity change, negative = inhibition” value was inactive: 22.3%. Turning to `COc1ccc(-n2c(=O)[nH]c3cc(C(=O)NCCc4ccc(Cl)cc4)ccc3c2=O)cc1OC`, the “activity change, negative = inhibition” value was inactive: -7.65%. Consider `Cc1ccc(OCC(=O)Nc2ccc3c(c2)sc(=O)n3C)cc1`, for which the “activity change, negative = inhibition” value was inactive: -0.395%.

As to `COc1ccc(NC(=O)Cn2nc(-c3ccccc3)c3cnc4ccc(C)cc4c32)cc1`, the outcome was inactive.

Consider `Cc1nc2ccn(Cc3ccco3)c(=O)c2cc1C(=O)Nc1ccc(F)cc1`, for which the “activity change, negative = inhibition” value was inactive: 9.02%. For `CN1CCN(C(=O)Cn2c(-c3cccs3)cc3ccccc32)CC1`, the “activity change, negative = inhibition” value is inactive: 0.0919%.

For `Cc1ccc(N2C(=O)CS(=O)(=O)C23C(=O)N(Cc2ccccc2C)c2ccccc23)cc1Cl` (stereo unspecified), the result was inactive. `COc1cc(OC)cc(C(=O)Nc2ccc(-c3nc4ccccc4s3)c(C)c2)c1`: the “activity change, negative = inhibition” value is inactive: 1.15%. In the case of `Cc1nn(C)c2c1c(C(F)(F)F)cc(=O)n2C(C)C(=O)NCCC(C)C` (stereo unspecified), the “activity change, negative = inhibition” value is inactive: 17.1%.

Regarding `CCCNC(=O)c1ccc2c(c1)nc(C)n2-c1cccc(C)c1`, the “activity change, negative = inhibition” value was inactive: -3.83%. On the same count and under the same terms, to `Cc1ccc2c(=O)c(C(=O)c3ccccc3)cn(CC(=O)Nc3ccc(C)c(Cl)c3)c2n1` belongs inactive: -0.568%; to `COc1ccc(NC(=O)C(NC(=O)C2CCC(C)CC2)C(C)C)cc1` (stereo unspecified), inactive: 8.28%. Turning to `CCC(Sc1ncccc1C(=O)Oc1ccccc1Cl)C(=O)Nc1ccccc1OC` (stereo unspecified), the “activity change, negative = inhibition” value was inactive: -2.62%. `Cc1ccc(-c2nc(C(=O)N3CCN(c4ccccc4)CC3)c3n2CCCCC3)cc1`: the “activity change, negative = inhibition” value is inactive: 13.7%.

Regarding `CCS(=O)(=O)N1CCc2cc(C(=O)Nc3cc([N+](=O)[O-])ccc3C)ccc21`, the “activity change, negative = inhibition” value is inactive: -15.5%. On to `O=C(Nc1ccc(OC(F)(F)F)cc1)c1cc2c(=O)n3ccccc3nc2s1`, for which the “activity change, negative = inhibition” value was inactive: 6.53%. `Cc1ccc(-n2c(SCC(=O)N3CCc4ccccc43)nc3c([nH]c4ccccc43)c2=O)cc1`: the “activity change, negative = inhibition” value was inactive: 3.11%. Same read-out and setting: then `CCn1cc2nc(SCC(=O)Nc3cc(OC)ccc3OC)n(Cc3ccc(Cl)cc3)c(=O)c2n1`, with inactive: -0.707%. On to `COc1cc(C2c3c(-c4cc(C)ccc4O)n[nH]c3C(=O)N2Cc2cccnc2)cc(OC)c1OC` (stereo unspecified), for which the “activity change, negative = inhibition” value was inactive: 0.367%. For `CCOc1ccccc1NC(=O)c1ccc2c(c1)CCN2S(C)(=O)=O`, the call was inactive. As for `Cn1c(=O)c(=O)n(C)c2cc(S(=O)(=O)N3CCCC3C(=O)Nc3cccc(F)c3)ccc21` (stereo unspecified), the “activity change, negative = inhibition” value is inactive: 1.29%. In the case of `O=C(NC1CCCCC1)c1ccc2c(c1)N(Cc1ccccc1F)C(=O)c1ccccc1S2`, the molecule was called inactive.

As for `COc1ccc(C(=O)Nc2ccc3nc(SCC(=O)N4CCCC4)sc3c2)cc1`, the “activity change, negative = inhibition” value was inactive: -5.83%.

As for `CCCC(=O)Nc1nnc(SCc2cc(=O)n3ccccc3n2)s1`, the “activity change, negative = inhibition” value was inactive: -1.4%. As to `COc1ccccc1CCNC(=O)Cn1ccc2cc(S(=O)(=O)N3CCCCC3)ccc21`, the “activity change, negative = inhibition” value is inactive: -1.03%. For `O=C(CCn1c(=O)c2cccn2c2cccnc21)N1CCN(c2ccc(F)cc2)CC1`, the “activity change, negative = inhibition” value was inactive: 3.64%.

Consider `Cc1ccccc1Cn1c(-c2cccs2)nc2ccccc21`, for which the “activity change, negative = inhibition” value is inactive: -0.255%. `COc1ccc(-c2noc(CN(C(=O)c3ccccc3Cl)C(C)C)n2)cc1`: the “activity change, negative = inhibition” value is inactive: 2.82%.

With `CCCCn1c(CN2CCN(c3ccc(OC)cc3)CC2)nc2c1c(=O)[nH]c(=O)n2C`, the “activity change, negative = inhibition” value was inactive: 14.8%. Turning to `Cc1cccc(NC(=O)CSc2nnc(CNC(=O)c3cccc(C)c3)n2-c2ccccc2)c1`, the “activity change, negative = inhibition” value is inactive: 6.74%. Take `Cc1ccc(CNC(=O)C2CCN(Cc3nc(-c4ccccc4C)oc3C)CC2)cc1`: the “activity change, negative = inhibition” value is inactive: 2.88%. For the molecule `CCN(CCN(C)C)C(=O)Cn1ncc2c([nH]c3ccc(C)cc32)c1=O`, the “activity change, negative = inhibition” value is inactive: 3.98%. On the same count and under the same terms, then `CN1CCN(c2c(F)cc3c(=O)c(C(=O)O)cn4c3c2OCN4C)CC1`, with inactive: 2.2%; and `Cc1ccc(Cn2c(CN3CCC(C(=O)NCc4cccnc4)CC3)cc3ccccc32)cc1`, with inactive: -6.93%; and `CCOc1ccc(CNC(=O)CCC(=O)N2Cc3ccccc3Oc3ncccc32)cc1`, with inactive: 4.38%. Regarding `Cc1ccc2nc(CSc3nnc(NC(=O)CC(C)C)s3)cc(=O)n2c1`, the “activity change, negative = inhibition” value is inactive: -3.3%. The same measure, in the same setting: to `COc1ccc(OC)c(NC(=O)C2CCCN(S(=O)(=O)c3ccc4[nH]c(=O)ccc4c3)C2)c1` (stereo unspecified) belongs inactive: -4%. Still for that read-out and setting: to `CN1CC(=O)N(CC(=O)Nc2cccc(C#N)c2)c2ccccc2C1=O` belongs inactive: -8.73%; to `O=C(Nc1ccccc1C(F)(F)F)C1(S(=O)(=O)c2ccc(Cl)cc2)CC1`, inactive: -3.62%.
